# Data as given in paper PMC4336329 (PLoS ONE, 2015).
# Hit rate of the full screen: of about 310,000 compounds, about 2,200 (0.71%) showed an effect of 50% or more. Effects have a minus sign here. Some of the results follow.
# Molecular target: human ether-à-go-go-related gene (hERG) potassium channel (human, UniProt Q12809)
# Experiment: primary screen, population patch clamp on CHO cells stably expressing hERG
# human ether-à-go-go-related gene (hERG) potassium channel, sequence (Q12809 whole entry, looked up): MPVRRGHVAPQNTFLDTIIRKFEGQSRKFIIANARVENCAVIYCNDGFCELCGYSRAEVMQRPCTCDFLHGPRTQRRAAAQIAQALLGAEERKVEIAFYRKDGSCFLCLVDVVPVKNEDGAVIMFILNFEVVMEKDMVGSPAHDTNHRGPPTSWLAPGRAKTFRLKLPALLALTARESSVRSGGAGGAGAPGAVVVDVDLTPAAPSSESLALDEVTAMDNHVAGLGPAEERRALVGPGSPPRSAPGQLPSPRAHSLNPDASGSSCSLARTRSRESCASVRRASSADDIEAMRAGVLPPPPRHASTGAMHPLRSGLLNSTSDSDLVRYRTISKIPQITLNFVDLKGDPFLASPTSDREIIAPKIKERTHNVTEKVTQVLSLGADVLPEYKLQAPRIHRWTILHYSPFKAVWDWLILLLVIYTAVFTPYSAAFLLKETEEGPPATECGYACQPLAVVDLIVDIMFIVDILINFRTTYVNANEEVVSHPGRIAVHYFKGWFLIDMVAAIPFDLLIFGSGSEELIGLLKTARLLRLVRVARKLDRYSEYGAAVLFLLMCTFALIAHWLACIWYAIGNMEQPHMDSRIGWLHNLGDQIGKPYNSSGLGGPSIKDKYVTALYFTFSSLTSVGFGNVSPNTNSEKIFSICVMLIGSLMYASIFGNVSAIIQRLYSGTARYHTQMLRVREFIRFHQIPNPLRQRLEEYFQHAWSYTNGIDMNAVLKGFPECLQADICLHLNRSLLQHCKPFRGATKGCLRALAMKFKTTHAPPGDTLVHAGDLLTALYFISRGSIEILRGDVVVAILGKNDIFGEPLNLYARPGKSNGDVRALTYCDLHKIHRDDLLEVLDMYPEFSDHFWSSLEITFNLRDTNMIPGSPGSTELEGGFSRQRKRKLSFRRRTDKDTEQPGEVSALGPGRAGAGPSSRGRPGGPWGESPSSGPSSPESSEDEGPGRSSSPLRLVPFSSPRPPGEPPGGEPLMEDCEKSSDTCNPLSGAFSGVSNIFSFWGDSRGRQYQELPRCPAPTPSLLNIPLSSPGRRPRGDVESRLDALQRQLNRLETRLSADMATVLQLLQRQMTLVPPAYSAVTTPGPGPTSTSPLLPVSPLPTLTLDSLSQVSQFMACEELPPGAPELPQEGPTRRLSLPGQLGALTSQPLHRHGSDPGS
row,SMILES,"hERG current change (%, negative = inhibition) at 1uM [%]"
1,CCOCCCN(C)C1CCN(C(=O)c2oc3ccccc3c2NC(=O)c2cccc([N+](=O)[O-])c2)CC1,-86
2,CCC1C(C#N)=C(N)OC2=C1C(=O)CC(C)(C)C2 (centres unmarked),9.61
3,Cc1ccc(N(C)S(=O)(=O)c2csc(C(N)=O)c2)cc1C,2.78
4,O=[N+]([O-])c1ccc(N2CCN(c3ccccc3F)CC2)nc1,11.6
5,OCCOCCOc1cccc2[nH]ccc12,7.87
6,CC1CCN(S(=O)(=O)c2ccc3c(c2)CC(C)N3C(=O)C2CCC2)CC1 (centres unmarked),13.8
7,COc1ccc(CNc2nc3nc(C)cc(C)n3n2)cc1OC,-4.82
8,C=CCN(c1ccc(F)cc1)S(=O)(=O)c1cc(C(=O)OCC(=O)N(C)C2CCS(=O)(=O)C2)ccc1Cl (centres unmarked),-3.64
9,Cn1c(=O)cc(NCc2ccccc2)[nH]c1=O,13.1
10,O=C(NNc1ccccc1Br)C(O)(c1cccc(C(F)(F)F)c1)c1cccc(C(F)(F)F)c1,4.11
11,COC(=O)c1[nH]c2ccccc2c1NS(=O)(=O)c1ccc(F)c(C)c1,-1
12,CCN(CC(O)COc1ccc(OCC(O)CN(CC)C2CCCCC2)cc1)C1CCCCC1 (centres unmarked),22.2
13,Cc1c(/C(O)=C2/C(=O)C(=O)N(Cc3cccnc3)C2c2ccccn2)cnn1-c1ccccc1 (centres unmarked),6.91
14,CCN(CC)c1ccc2cc(S(=O)(=O)c3ccc(Cl)cc3)c(=O)oc2c1,-3.3
15,CCOC(=O)N1CCN(C2CC(=O)N(c3ccccc3)C2=O)CC1 (centres unmarked),12.8
16,CC12CCC(C(=O)NCc3ccc4c(c3)OCO4)(CC1=O)C2(C)C (centres unmarked),-9.45
17,COc1ccc(/C=C2/NC(=O)CNC2=O)cc1,14.3
18,O=C(Nc1cccc(F)c1)c1cc(S(=O)(=O)N2CCOCC2)ccc1N1CCCC1,12.2
19,CN(C)c1ccc(N2C(=NC(=O)C3CCCO3)SC3CS(=O)(=O)CC32)cc1 (centres unmarked),11.8

row,SMILES,"hERG current change (%, negative = inhibition) at 1uM [%]"
1,COC(=O)C(CC(C(=O)OC)C(=O)OC)C(=O)OC,10.3
2,COc1cnn(-c2cccc(Cl)c2)c(=O)c1Cl,12.9
3,COc1ccc(C2CC(c3cccs3)=NN2C(=O)CSc2nc3ccccc3o2)cc1 (centres unmarked),17.7
4,CN1CCN(C(=O)CCc2ccc(S(=O)(=O)NC3CCCCC3)cc2)CC1,17.6
5,CCc1cccc(NS(=O)(=O)c2ccc3c(c2)NC(=O)CC(=O)N3)c1,21.6
6,CSc1nccc(NC(=O)c2ccc(C(C)(C)C)cc2)n1,10
7,Cc1ccc(Nc2ncc3c(n2)CC(C)CC3=O)c(C)c1 (centres unmarked),11.8
8,CC(=O)Nc1ccc(S(=O)(=O)N2CCN(C(=O)N3CCCCCC3)CC2)cc1,11
9,CCOC(=O)C(CC)n1cnc2c(nnn2-c2ccccc2)c1=O (centres unmarked),1.66
10,CCOc1ccc(-n2nnnc2SCC(=O)NC2CCCC2)cc1,1.14
11,O=C(NCC1CCCO1)c1onc(CSc2ccc(F)c(F)c2)c1C(=O)O (centres unmarked),12.4
12,COc1cc(C(=O)N/N=C/c2coc3ccc(Cl)cc3c2=O)ccc1O,4.54
13,CCOC(=O)CSc1nnc(-c2cccs2)n1-c1ccccc1,-5.75
14,Cc1c(CN2CCC(n3nccc3NC(=O)CCc3ccccc3)CC2)cnn1C,22.5
15,CCC(=O)N1CCc2cc(S(=O)(=O)CCC(=O)N3CCN(c4ccccc4)CC3)ccc21,11.8
16,CSc1nnc(-c2ccc(O)cc2)n1C,-1.62
17,CN(C(=O)c1ccc(S(=O)(=O)N2CCCC2)cc1)C1CCCCC1,14.4
18,CSc1ccccc1NC(=O)COC(=O)CCc1ccccc1,18.8
19,O=C(CSc1nc(C2CC2)nc2ccccc12)Nc1ccccc1Cl,20.5

row,SMILES,"hERG current change (%, negative = inhibition) at 1uM [%]"
1,Cc1cc(C)cc(Nc2c(F)c(F)c(F)c(F)c2C(=O)O)c1,13.9
2,O=C(C1CCCN(S(=O)(=O)c2cc(Cl)ccc2Cl)C1)N1CCCC1 (centres unmarked),6.82
3,CN1CCN(CC(=O)Nc2ccc(Cl)cc2Cl)CC1,-46.1
4,C=CCn1c(SCC(C)=O)nc2scc(-c3ccco3)c2c1=O,12.8
5,O=C(c1cccs1)N(Cc1ccc(F)cc1)C1CCS(=O)(=O)C1 (centres unmarked),-9.7
6,O=C(CSc1nnc(-c2cccs2)n1-c1cccc(Cl)c1)c1cccc2c1OCCO2,18
7,CCOc1ccc(NC(=O)c2cc(S(=O)(=O)N3CCOCC3)cs2)cc1,18.7
8,CN1CCN(c2ccccc2NC(=O)COc2ccc(Cl)cc2)CC1,-6.49
9,Cc1ccc(NC(=O)CSc2ncccc2C(=O)Oc2cccc([N+](=O)[O-])c2)cc1Cl,9.5
10,COc1ccc(NC(=O)c2nc[nH]c2C(=O)N[C@@H](C)c2ccccc2)cc1,7.34
11,O=C1CCC(C(=O)N2CCCC(C(=O)c3ccc4ccccc4c3)C2)=NN1 (centres unmarked),5.13
12,C/C(=N\NC(=O)OC(C)(C)C)c1ccc(-n2ccnc2)cc1,-3.81
13,O=C(NCCCc1ccc(F)cc1)C1CCC(=O)N(CCCN2CCCC2=O)C1 (centres unmarked),13.1
14,CCN(CC)S(=O)(=O)c1ccc(/C=C/C(=O)Nc2c(C)n(C)n(-c3ccccc3)c2=O)cc1,5.28
15,CCOc1cc(-c2nnc(NC(=O)c3ccco3)o2)cc(OCC)c1OCC,11.1
16,COc1c(C(CC(C)C)OC(C)=O)ccc2c1C(=O)OCc1cc(C)cc(O)c1O2 (centres unmarked),7.47
17,CC(=O)Nc1ccc(NS(=O)(=O)c2ccc3c(c2)NC(=O)CC(=O)N3)cc1,-2.74
18,Cl.O=C(O)c1ccc(CNCc2cccc(Cl)c2Cl)cc1,2.5
